# From PubChem BioAssay AID504832 (National Center for Advancing Translational Sciences (NCATS), 2011)
# About 18,000 (5.8%) of roughly 310,000 compounds were called active. This list was built around the results that the source calls inconclusive (neither active nor inactive); the mix of calls is not that of the screen. The call rests on the fitted dose curve; in most records, active means well fitted inhibition curve with a large enough effect; inconclusive means small, poorly fitted or top-dose-only effect, or another doubt; inactive means no such curve, though single readings can be large or run the other way. Potencies of inconclusive entries are left out as doubtful fits.
# Assay: Primary qHTS for delayed death inhibitors of the malarial parasite plastid, 48 hour incubation
# Settings: P. falciparum luciferase growth in erythrocytes; series mostly up to 28.7 µM; activity change, negative = inhibition: at the top concentration
# Procedure, shortened: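 Read-out is firefly luciferase luminescence from an integrated reporter in P. falciparum, so falling signal marks reduced parasite growth. Infected erythrocytes were at 2% hematocrit and 0.1% parasitemia (final) in Albumax-supplemented RPMI 1640.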
# On the % scale 0 is the no-effect control and ±100 the full control effect; potency means the concentration at half of the fitted maximal effect; tags describe the fitted curve by direction and shape.
Structure (SMILES),Potency,"activity change, negative = inhibition"
CCOC(=O)N1CCN(CC(=O)N2c3ccccc3Sc3ccccc32)CC1,"inconclusive [inhibitor, partial curve, poor fit]",
COc1ccc(NC(=O)Nc2ccc(F)c(Cl)c2)cc1,,inactive: 63.7%
O=C(O)CSc1cccc[n+]1[O-],,inactive: 19%
Cc1nc(C(C)NC(=O)c2cc(COc3ccc(F)c(F)c3)on2)cs1 (stereo not given),,inactive: -9.51%
CSc1nc2ccc(NC(=O)c3ccco3)cc2s1,"inconclusive [inhibitor, single point]",
COc1ccc(-c2ccc(C#N)c(SCC(=O)OCc3ccccc3)n2)cc1OC,"inconclusive [inhibitor, single point]",
COc1cccc(NC(=S)Nc2ccc(F)cc2)c1,,inactive: 25.2%
Cc1ccccc1C(=O)Nc1ccc(C(=O)O)cc1NC(=O)c1ccccc1C,,inactive: 7.73%
O=C(CCn1ccc([N+](=O)[O-])n1)NC1CCCCCC1,,inactive: 15.8%
CCC(=O)NN1CCc2cc3ccc(C)cc3nc21,,inactive: -5.43%
COc1ccc(-c2nc3c(c4nnc(SC(C)C(=O)Nc5ccccc5)n24)COC(C)(C)C3)cc1 (stereo not given),"inconclusive [inhibitor, single point]",
COc1ccc(CN(C)C(=O)COC(=O)c2c(C)nn(-c3ccc(F)cc3)c2Cl)cc1,"inconclusive [inhibitor, single point]",
O=C(CCN1C(=O)CSC1=O)Nc1ccc(Br)cc1,"inconclusive [inhibitor, single point]",
COc1cccc(CN2CCC(C(=O)Nc3ccc(Oc4cccnc4)cc3)CC2)c1,"inconclusive [inhibitor, partial curve, poor fit]",
Cc1ccc2nc3c(cc(C(=O)NCCc4ccccc4)c(=N)n3CCCN3CCOCC3)c(=O)n2c1,"inconclusive [inhibitor, full curve]",
Cc1cccc(-c2nc3c(c(SCC(=O)N4CCOCC4)n2)Cc2c(CO)cnc(C)c2O3)c1,active: 5.86 µM,
CCOC(=O)C1=C(O)/C(=C\c2cc(C)n(-c3ccc(F)cc3)c2C)N=C1C,"inconclusive [inhibitor, full curve, poor fit]",
c1ccc(CCNc2nc(-c3cccnc3)cs2)cc1,"inconclusive [inhibitor, partial curve]",
CCOC(=O)C1CCCN(C(=O)c2cccc(S(=O)(=O)N3CC(C)OC(C)C3)c2)C1 (stereo not given),"inconclusive [inhibitor, full curve, poor fit]",
CCc1cc2c(COC(=O)c3cccc(NS(C)(=O)=O)c3)cc(=O)oc2cc1O,"inconclusive [inhibitor, partial curve]",
O=C(NCCc1ccccc1F)c1cccc2cccnc12,"inconclusive [inhibitor, single point]",
Cn1c(=O)c(C(=O)CSc2ccccc2)c(N)n(Cc2ccccc2)c1=O,"inconclusive [inhibitor, single point]",
CCN(CC)CC#CCOC(=O)C(O)(c1ccccc1)C1CCCCC1 (stereo not given),"inconclusive [inhibitor, single point]",

Structure (SMILES),Potency,"activity change, negative = inhibition"
COc1ccccc1N(CC(=O)NCCSCc1ccc(C)cc1)S(=O)(=O)c1ccccc1,"inconclusive [inhibitor, partial curve]",
Cc1cc(C)n(C(=O)/C=C/c2cccs2)n1,,inactive: 25.2%
CCOc1ccc(N=C(C)C2=C(O)c3ccccc3C2=O)cc1,,inactive: 15.4%
O=C(NCCOC(=O)C1COc2ccccc2O1)c1cccnc1 (stereo not given),,inactive: 61.1%
COc1ccc(CNC(=O)c2cc(COc3c(F)cccc3F)on2)cc1OC,"inconclusive [inhibitor, partial curve, poor fit]",
CCN(CC)C(=O)c1cccc(NC(=O)CCc2nc3sc4c(c3c(=O)[nH]2)CCCC4)c1,"inconclusive [inhibitor, single point]",
Cn1c(SCC(=O)N2c3ccccc3Sc3ccc(Cl)cc32)nnc1-c1ccco1,active: 9.28 µM,
COc1ccc(-c2nn(-c3ccccc3)cc2/C=N/Nc2cccc(C(=O)O)c2)cc1,,inactive: 16.8%
O=C(CCNC(=O)c1ccc(Br)cc1)Nc1ccccc1N1CCCC1,"inconclusive [inhibitor, single point]",
COc1ccc(C(=O)OCC(=O)NC2CC2)cc1S(=O)(=O)Nc1ccc(C)cc1,"inconclusive [inhibitor, single point]",
Cc1cc(Br)ccc1NC(=O)CN(C)Cc1cccs1,"inconclusive [inhibitor, full curve, poor fit]",
CC1CCCC(NC(=O)c2cn(C)c3ccc(S(=O)(=O)N4CCCC4)cc3c2=O)C1C (stereo not given),"inconclusive [inhibitor, partial curve]",
COc1ccc(C(CC(=O)N2CCOCC2)c2c(OC)cc(OC)c3c(-c4ccccc4)cc(=O)oc23)cc1 (stereo not given),active: 10.4 µM,
CCOC(=O)N1CCN(C(=O)COc2ccc3c(c2)C(=O)CC2(CCN(C(C)=O)CC2)O3)CC1,"inconclusive [inhibitor, single point]",
CC(=O)Nc1ccc(NC(=O)c2ccc(NS(=O)(=O)c3cc(C(C)(C)C)cc(C)c3C)cc2)cc1,"inconclusive [inhibitor, partial curve]",
Cc1cccc(C)c1NC(=O)Cn1cc(C=O)c2ccccc21,,inactive: 1.88%
COc1ccc(-c2oc3c(OC)c(OC)c(OC)c(O)c3c(=O)c2OC)cc1OC,"inconclusive [inhibitor, full curve, poor fit]",
COc1cccc(-c2nnc(SCC(=O)NC3CCS(=O)(=O)C3)n2C)c1 (stereo not given),,inactive: -13.3%
COc1cccc(NC(=O)COC(=O)CCn2c(C)csc2=O)c1,,inactive: 0.733%
Oc1ccc(CNc2ccc(F)cc2)c2cccnc12,"inconclusive [inhibitor, partial curve]",
CCOc1ccc(-n2c(C)c(C(C)=O)c3cc(OC(C)=O)ccc32)cc1,"inconclusive [inhibitor, partial curve]",
CCOC(=O)Cc1csc(NC(=O)CSc2nc(=O)[nH]c3c2CCCC3)n1,"inconclusive [inhibitor, single point]",
